From PMC10668032 come the findings set out here.

The other results are listed elsewhere or left out. At the low end of the ranking, values are background and their order means little.

The experiment deals with SIX1 homeodomain (reference allele) (UniProt Q15475). The experiment can be described thus: universal protein binding microarray. To be noted: Universal all-10-mer PBM (8x60K, AMADID 030236), 300 nM GST-tagged protein, Alexa Fluor 488 anti-GST; buffer, salt, pH and temperature not stated; high values mean tight binding; most listed sequences are background and not binding sites; double strand, one strand shown.
As to TCATACAA, the binding signal came to 0.0502 E-score.

Regarding CCGTTGAC, the binding signal was -0.0822 E-score.

For the sequence GTATGCTA, the binding signal came out at 0.107 E-score.

As to ACTCGTAT, the binding signal came to 0.205 E-score.

In the case of GCGCTAAC, the binding signal is -0.0761 E-score.

Consider GACTACTC, for which the binding signal is -0.135 E-score.

AAAATACC: the binding signal came out at 0.181 E-score.

With GAACTGCC, the binding signal was -0.072 E-score.

As for GCATATAA, the binding signal turned out to be 0.175 E-score.

AGGCTTAC: the binding signal is -0.246 E-score.

Take ATTTGACG: the binding signal is -0.0934 E-score.

For the sequence ACTCGTAA, the binding signal was -0.105 E-score.

Regarding CGGGCAAC, the binding signal is -0.0178 E-score.

Regarding CCCCTCGC, the binding signal was found to be 0.0809 E-score.

As to GGGTCTGA, the binding signal is -0.143 E-score.

As to CCGAATCA, the binding signal worked out at 0.00671 E-score.

As for ATTGCCTA, the binding signal stood at 0.0953 E-score.

With CAACCTTA, the binding signal is -0.189 E-score.

For ACAGCTAC, the binding signal is -0.0216 E-score.

CATGCCGC: the binding signal worked out at 0.0784 E-score.

Consider AATCTGGC, for which the binding signal worked out at 0.0437 E-score.

TCAACAGA: the binding signal was -0.0865 E-score.

For AGGAGCCA, the binding signal turned out to be 0.135 E-score.

CATATCCA: the binding signal was 0.348 E-score.

AGATTTTG: the binding signal is -0.12 E-score.

For CAAAGGAA, the binding signal is -0.257 E-score.

For the sequence ATGTAGAA, the binding signal was determined as 0.109 E-score.

For GGATCGCA, the binding signal was 0.366 E-score.

On to AACTGGTG, for which the binding signal was determined as 0.154 E-score.

For the sequence AACTCGTC, the binding signal is -0.32 E-score.

Turning to AGGACTGA, the binding signal worked out at 0.0143 E-score.

As to GCCGTGGA, the binding signal is -0.11 E-score.

On to GATCGCCC, for which the binding signal was 0.379 E-score.

For the sequence CGGAGCTC, the binding signal was -0.0504 E-score.

Take TCGACCAA: the binding signal was -0.166 E-score.

Take AATAATAG: the binding signal was -0.00988 E-score.

As to GTGGAGTA, the binding signal was determined as 0.167 E-score.

Turning to TGCCTTAA, the binding signal is -0.156 E-score.

Regarding AGAAGCCC, the binding signal is -0.0689 E-score.

Take CTCCCGAG: the binding signal was -0.0973 E-score.

For the sequence AGGCGTTC, the binding signal is -0.2 E-score.

On to AGCGGATA, for which the binding signal came out at 0.364 E-score.

On to ACGCGGTG, for which the binding signal stood at 0.0207 E-score.

As to TACCAACA, the binding signal was found to be 0.107 E-score.

For the sequence TCCCAGGA, the binding signal was found to be 0.129 E-score.

Turning to ACACTTCT, the binding signal turned out to be 0.135 E-score.

With GTTAGCGA, the binding signal was determined as 0.0325 E-score.

For the sequence AAAAGTTT, the binding signal was -0.329 E-score.

Consider CCTGAGGC, for which the binding signal is -0.12 E-score.

Take CCCAATTA: the binding signal was 0.0162 E-score.

Turning to AGGATTAC, the binding signal was found to be 0.106 E-score.

AAGGCTCC: the binding signal is -0.246 E-score.

On to CGAACGTA, for which the binding signal was -0.0237 E-score.

As to ATAAGAAC, the binding signal is -0.00959 E-score.

Turning to TCGCGGCA, the binding signal is -0.0108 E-score.

Turning to TCTAGTCA, the binding signal is -0.0793 E-score.

With ATAAATAT, the binding signal was 0.168 E-score.

Turning to GCACGGCA, the binding signal was -0.324 E-score.

With GGAATGCA, the binding signal is -0.242 E-score.

In the case of CAAATAGC, the binding signal is -0.191 E-score.

Take TAAGCGCA: the binding signal was -0.188 E-score.

Turning to TATGATAA, the binding signal turned out to be 0.17 E-score.

With GCATAGCA, the binding signal is -0.187 E-score.

For CAAGCCCG, the binding signal was -0.171 E-score.

In the case of ATTGTATC, the binding signal came to 0.367 E-score.

On to GTGGCACA, for which the binding signal is -0.155 E-score.

As to ACGCTGGA, the binding signal is -0.132 E-score.

On to GCGATACC, for which the binding signal is 0.483 E-score.

With AACTGCGT, the binding signal is -0.237 E-score.

In the case of ATAGAACC, the binding signal stood at 0.00942 E-score.

With AAAGGATT, the binding signal is 0.0331 E-score.

Turning to CTTGTATC, the binding signal amounted to 0.266 E-score.

Regarding AGTTTATC, the binding signal stood at 0.117 E-score.

As to AGACATCA, the binding signal is -0.0801 E-score.

CATGCGTA: the binding signal came out at 0.0602 E-score.

With GGACGCCC, the binding signal is -0.299 E-score.

For ACTGTCCA, the binding signal is -0.049 E-score.

For GATATTAA, the binding signal worked out at 0.31 E-score.

As for GGATATAA, the binding signal was found to be 0.352 E-score.

As for AAGCCCAA, the binding signal is -0.222 E-score.

For CTGTGTCA, the binding signal was 0.0146 E-score.

With GTGACCAA, the binding signal was -0.0791 E-score.

On to AGAACACT, for which the binding signal is -0.0901 E-score.

For AATTTACA, the binding signal was -0.258 E-score.

For AATAATAA, the binding signal was 0.0553 E-score.

As to GATCCCGC, the binding signal came out at 0.375 E-score.

Consider CATAGTCA, for which the binding signal was -0.067 E-score.

Turning to ATAGCGAA, the binding signal came to 0.135 E-score.

On to AGCGGGTA, for which the binding signal is 0.143 E-score.

For the sequence CTGGTCCA, the binding signal was -0.014 E-score.

Turning to ATACGGAA, the binding signal amounted to 0.218 E-score.

For CTCGAGAC, the binding signal was determined as 0.0385 E-score.

Regarding AGTGTTTG, the binding signal is -0.159 E-score.

Turning to GGCGTGAC, the binding signal was -0.238 E-score.

As for AGGGGTAC, the binding signal amounted to 0.178 E-score.

For the sequence ACTTCGTA, the binding signal is -0.206 E-score.

With GAAAAACA, the binding signal was -0.317 E-score.

AGAGACCT: the binding signal was -0.146 E-score.

In the case of CAAATGCA, the binding signal was -0.234 E-score.

For the sequence AGGACGAT, the binding signal was found to be 0.13 E-score.

On to GGCCTCAC, for which the binding signal was -0.201 E-score.

In the case of ATCTGGTA, the binding signal worked out at 0.284 E-score.

As for CGGTCGCC, the binding signal was -0.0292 E-score.

Take CATATAGC: the binding signal was 0.162 E-score.

Turning to ACGAACGC, the binding signal was -0.26 E-score.

On to ATTGGGGA, for which the binding signal stood at 0.138 E-score.

As to AGATGTTC, the binding signal is -0.217 E-score.

ACCAGTAC: the binding signal was -0.0111 E-score.

Turning to ATGCCATC, the binding signal was found to be 0.0271 E-score.

AGTTTCAT: the binding signal was 0.0286 E-score.

CGTCGTCC: the binding signal is -0.184 E-score.

Turning to AAAGGCAA, the binding signal was -0.276 E-score.

With TCTGTACA, the binding signal was -0.103 E-score.

Take CCGCGTCC: the binding signal is -0.0692 E-score.

Turning to GCCGGAAC, the binding signal was -0.0482 E-score.

Regarding GCACGCGC, the binding signal is -0.222 E-score.

Regarding CTTCTAAA, the binding signal is -0.0951 E-score.

Consider GACAGAGC, for which the binding signal is -0.212 E-score.

Take ATTCGAAC: the binding signal is -0.0261 E-score.

AAGGCGCA: the binding signal was -0.139 E-score.

As for ACCTGTAA, the binding signal is -0.0894 E-score.

As for GGGCTGCA, the binding signal is -0.117 E-score.

On to CCTCAGGC, for which the binding signal is -0.065 E-score.

Take GCCCCGCC: the binding signal turned out to be 0.274 E-score.

Take ATGCATCA: the binding signal stood at 0.198 E-score.

For AGTACGGC, the binding signal is -0.223 E-score.

AGTGCAGA: the binding signal was -0.0857 E-score.

Consider ACGGAAAC, for which the binding signal is -0.276 E-score.

For the sequence AGAATACT, the binding signal worked out at 0.208 E-score.

On to GGCTGTCA, for which the binding signal was -0.194 E-score.

Take AACATAGA: the binding signal is -0.0344 E-score.

As for CAGTGCTC, the binding signal is 0.0264 E-score.

As for ATCATTCC, the binding signal was 0.291 E-score.

As for GGCTCGGA, the binding signal came to 0.129 E-score.

In the case of GGCGAATA, the binding signal stood at 5.5e-05 E-score.

For GCTGACCA, the binding signal amounted to 0.0419 E-score.

With GTCGTGTA, the binding signal worked out at 0.096 E-score.

As for ACAGGAAC, the binding signal is -0.246 E-score.

Consider TCCTTAGA, for which the binding signal worked out at 0.0888 E-score.

For the sequence CAGCCCAA, the binding signal is -0.118 E-score.

Turning to AGTCTACC, the binding signal was -0.0945 E-score.

For the sequence AACAAAGA, the binding signal was -0.186 E-score.

Turning to AATCCGCT, the binding signal was found to be 0.191 E-score.

CCGCCCTA: the binding signal was determined as 0.00773 E-score.

For the sequence GAGCACTC, the binding signal is -0.0612 E-score.

In the case of GGCCTCTA, the binding signal is -0.106 E-score.

In the case of ACCCACTA, the binding signal is 0.139 E-score.

As for ATAGCCAG, the binding signal was 0.0395 E-score.

ATGGGGAC: the binding signal turned out to be 0.049 E-score.

With ATTTGCTC, the binding signal is -0.193 E-score.

Turning to GTCCATGA, the binding signal was -0.0208 E-score.

GCGCGACC: the binding signal was -0.0719 E-score.

Take CTAGGATC: the binding signal stood at 0.36 E-score.

With ACGTCGGC, the binding signal was -0.154 E-score.

On to CACCACCG, for which the binding signal came to 0.139 E-score.

Turning to CTACCAGA, the binding signal is 0.079 E-score.

With ACAATTGG, the binding signal is -0.154 E-score.

In the case of GCGACTCC, the binding signal is -0.22 E-score.

For the sequence CGAAACAG, the binding signal is -0.121 E-score.

As for GAGATTAA, the binding signal was found to be 0.00636 E-score.

Regarding AACACGAC, the binding signal is -0.0661 E-score.

As to AACACCGA, the binding signal was found to be 0.228 E-score.

For AATAGAAA, the binding signal was -0.184 E-score.

In the case of AGTCGAGC, the binding signal is -0.163 E-score.

GTTGTGGA: the binding signal is -0.129 E-score.

ACGACTAC: the binding signal was -0.162 E-score.

For AGCTGACG, the binding signal is -0.286 E-score.

Turning to CTGTGGTC, the binding signal was -0.0409 E-score.

For the sequence CGACAGCA, the binding signal was -0.207 E-score.

Regarding CAGAAGTC, the binding signal was -0.265 E-score.

On to CGAACCGA, for which the binding signal is 0.112 E-score.

Take ACAGGAGG: the binding signal is -0.0838 E-score.
